Laboratory results from the supplement of paper PMC12230231.
± gives the standard deviation of the averaged measurements. Restriction of a single-cycle SIVsab GFP reporter by TRIM5α v1-loop variants in CRFK cells. Human variants: read share among cells still uninfected after two challenges over input, higher = gained restriction. Rhesus variants: share among infected cells over input, higher = lost restriction. Reporter dose not given per row. No active / inactive call per row; the paper calls a change when both replicates lie above its controls (mean + 2 SD of stop or wild-type variants, or the top frameshift score). Residues outside the varied loop are taken from Swiss-Prot. The paper reads the human single-substitution scores as noise; they and the rhesus combinations repeat poorly (rank correlation 0.3 to 0.4), indel scores repeat only for the top variants, rhesus substitutions well (0.9).

tested on: SIVsab (simian immunodeficiency virus of sabaeus monkeys), single-cycle GFP reporter, in CRFK cells; assay: enrichment among infected cells over input (fold); higher = weaker restriction; conditions: library: human / rhesus combinations
Protocol: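 Pools of CRFK cells expressing variants of the TRIM5α v1 loop were challenged with the single-cycle reporter, sorted by GFP and sequenced; mean of two replicates.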

| Sequence | enrichment |
| --- | --- |
| MASGILLNVKEEVTCPICLELLTEPLSLHCGHSFCQACITANHKKSMLYKEGERSCPVCRISYQPENIQPNRHVANIVEKLREVKLSPEEGQKVDHCARHGEKLLLFCQEDSKVICWLCERSQEHRGHHTFLMEEVAQEYHVKLQTALEMLRQKQQEAEKLEADIREEKASWKIQIDYDKTNVSADFEQLREILDWEESNELQNLEKEEEDILKSLTKSETEMVQQTQYMRELISELEHRLQGSMMDLLQGVDGIIKRIENMTLKKPKTFHKNQRRVFRAPDLKGMLDMFRELTDARRYWVDVTLAPNNISHAVIAEDKRQVSSRNPQIMYQAPGTRYTFQTLTNFNYCTGVLGSQSITSGKHYWEVDVSKKSAWILGVCAGFQSDAMYNIEQNENYQPKYGYWVIGLQEGVKYSVFQDGSSHTPFAPFIVPLSVIICPDRVGVFVDYEACTVSFFNITNHGFLIYKFSQCSFSKPVFPYLNPRKCTVPMTLCSPSS [rhesus TRIM5α, 332-344 = QAPGTRYTFQTLT] | 1.09 ± 0.27 |
| MASGILLNVKEEVTCPICLELLTEPLSLHCGHSFCQACITANHKKSMLYKEGERSCPVCRISYQPENIQPNRHVANIVEKLREVKLSPEEGQKVDHCARHGEKLLLFCQEDSKVICWLCERSQEHRGHHTFLMEEVAQEYHVKLQTALEMLRQKQQEAEKLEADIREEKASWKIQIDYDKTNVSADFEQLREILDWEESNELQNLEKEEEDILKSLTKSETEMVQQTQYMRELISELEHRLQGSMMDLLQGVDGIIKRIENMTLKKPKTFHKNQRRVFRAPDLKGMLDMFRELTDARRYWVDVTLAPNNISHAVIAEDKRQVSSRNPQIMYQARGTLFTFQTLTNFNYCTGVLGSQSITSGKHYWEVDVSKKSAWILGVCAGFQSDAMYNIEQNENYQPKYGYWVIGLQEGVKYSVFQDGSSHTPFAPFIVPLSVIICPDRVGVFVDYEACTVSFFNITNHGFLIYKFSQCSFSKPVFPYLNPRKCTVPMTLCSPSS [rhesus TRIM5α, 332-344 = QARGTLFTFQTLT] | 1.31 ± 0.7 |
| MASGILLNVKEEVTCPICLELLTEPLSLHCGHSFCQACITANHKKSMLYKEGERSCPVCRISYQPENIQPNRHVANIVEKLREVKLSPEEGQKVDHCARHGEKLLLFCQEDSKVICWLCERSQEHRGHHTFLMEEVAQEYHVKLQTALEMLRQKQQEAEKLEADIREEKASWKIQIDYDKTNVSADFEQLREILDWEESNELQNLEKEEEDILKSLTKSETEMVQQTQYMRELISELEHRLQGSMMDLLQGVDGIIKRIENMTLKKPKTFHKNQRRVFRAPDLKGMLDMFRELTDARRYWVDVTLAPNNISHAVIAEDKRQVSSRNPQIMYGARGTLFTFQTLVNFNYCTGVLGSQSITSGKHYWEVDVSKKSAWILGVCAGFQSDAMYNIEQNENYQPKYGYWVIGLQEGVKYSVFQDGSSHTPFAPFIVPLSVIICPDRVGVFVDYEACTVSFFNITNHGFLIYKFSQCSFSKPVFPYLNPRKCTVPMTLCSPSS [rhesus TRIM5α, 332-344 = GARGTLFTFQTLV] | 1.27 ± 0.76 |
| MASGILLNVKEEVTCPICLELLTEPLSLHCGHSFCQACITANHKKSMLYKEGERSCPVCRISYQPENIQPNRHVANIVEKLREVKLSPEEGQKVDHCARHGEKLLLFCQEDSKVICWLCERSQEHRGHHTFLMEEVAQEYHVKLQTALEMLRQKQQEAEKLEADIREEKASWKIQIDYDKTNVSADFEQLREILDWEESNELQNLEKEEEDILKSLTKSETEMVQQTQYMRELISELEHRLQGSMMDLLQGVDGIIKRIENMTLKKPKTFHKNQRRVFRAPDLKGMLDMFRELTDARRYWVDVTLAPNNISHAVIAEDKRQVSSRNPQIMYQAPGTLYTFPTLVNFNYCTGVLGSQSITSGKHYWEVDVSKKSAWILGVCAGFQSDAMYNIEQNENYQPKYGYWVIGLQEGVKYSVFQDGSSHTPFAPFIVPLSVIICPDRVGVFVDYEACTVSFFNITNHGFLIYKFSQCSFSKPVFPYLNPRKCTVPMTLCSPSS [rhesus TRIM5α, 332-344 = QAPGTLYTFPTLV] | 1.79 ± 0.64 |
| MASGILLNVKEEVTCPICLELLTEPLSLHCGHSFCQACITANHKKSMLYKEGERSCPVCRISYQPENIQPNRHVANIVEKLREVKLSPEEGQKVDHCARHGEKLLLFCQEDSKVICWLCERSQEHRGHHTFLMEEVAQEYHVKLQTALEMLRQKQQEAEKLEADIREEKASWKIQIDYDKTNVSADFEQLREILDWEESNELQNLEKEEEDILKSLTKSETEMVQQTQYMRELISELEHRLQGSMMDLLQGVDGIIKRIENMTLKKPKTFHKNQRRVFRAPDLKGMLDMFRELTDARRYWVDVTLAPNNISHAVIAEDKRQVSSRNPQIMYGARGTLFPSFVNFNYCTGVLGSQSITSGKHYWEVDVSKKSAWILGVCAGFQSDAMYNIEQNENYQPKYGYWVIGLQEGVKYSVFQDGSSHTPFAPFIVPLSVIICPDRVGVFVDYEACTVSFFNITNHGFLIYKFSQCSFSKPVFPYLNPRKCTVPMTLCSPSS [rhesus TRIM5α, 332-344 = GARGTLFPSFV] | 0.226 ± 0.015 |
| MASGILLNVKEEVTCPICLELLTEPLSLHCGHSFCQACITANHKKSMLYKEGERSCPVCRISYQPENIQPNRHVANIVEKLREVKLSPEEGQKVDHCARHGEKLLLFCQEDSKVICWLCERSQEHRGHHTFLMEEVAQEYHVKLQTALEMLRQKQQEAEKLEADIREEKASWKIQIDYDKTNVSADFEQLREILDWEESNELQNLEKEEEDILKSLTKSETEMVQQTQYMRELISELEHRLQGSMMDLLQGVDGIIKRIENMTLKKPKTFHKNQRRVFRAPDLKGMLDMFRELTDARRYWVDVTLAPNNISHAVIAEDKRQVSSRNPQIMYGARGTRFTFPSLTNFNYCTGVLGSQSITSGKHYWEVDVSKKSAWILGVCAGFQSDAMYNIEQNENYQPKYGYWVIGLQEGVKYSVFQDGSSHTPFAPFIVPLSVIICPDRVGVFVDYEACTVSFFNITNHGFLIYKFSQCSFSKPVFPYLNPRKCTVPMTLCSPSS [rhesus TRIM5α, 332-344 = GARGTRFTFPSLT] | 0.805 ± 0.046 |
| MASGILLNVKEEVTCPICLELLTEPLSLHCGHSFCQACITANHKKSMLYKEGERSCPVCRISYQPENIQPNRHVANIVEKLREVKLSPEEGQKVDHCARHGEKLLLFCQEDSKVICWLCERSQEHRGHHTFLMEEVAQEYHVKLQTALEMLRQKQQEAEKLEADIREEKASWKIQIDYDKTNVSADFEQLREILDWEESNELQNLEKEEEDILKSLTKSETEMVQQTQYMRELISELEHRLQGSMMDLLQGVDGIIKRIENMTLKKPKTFHKNQRRVFRAPDLKGMLDMFRELTDARRYWVDVTLAPNNISHAVIAEDKRQVSSRNPQIMYGAPGTLYTFPSLVNFNYCTGVLGSQSITSGKHYWEVDVSKKSAWILGVCAGFQSDAMYNIEQNENYQPKYGYWVIGLQEGVKYSVFQDGSSHTPFAPFIVPLSVIICPDRVGVFVDYEACTVSFFNITNHGFLIYKFSQCSFSKPVFPYLNPRKCTVPMTLCSPSS [rhesus TRIM5α, 332-344 = GAPGTLYTFPSLV] | 2.26 ± 0.2 |
| MASGILLNVKEEVTCPICLELLTEPLSLHCGHSFCQACITANHKKSMLYKEGERSCPVCRISYQPENIQPNRHVANIVEKLREVKLSPEEGQKVDHCARHGEKLLLFCQEDSKVICWLCERSQEHRGHHTFLMEEVAQEYHVKLQTALEMLRQKQQEAEKLEADIREEKASWKIQIDYDKTNVSADFEQLREILDWEESNELQNLEKEEEDILKSLTKSETEMVQQTQYMRELISELEHRLQGSMMDLLQGVDGIIKRIENMTLKKPKTFHKNQRRVFRAPDLKGMLDMFRELTDARRYWVDVTLAPNNISHAVIAEDKRQVSSRNPQIMYQAPGTRFQSFVNFNYCTGVLGSQSITSGKHYWEVDVSKKSAWILGVCAGFQSDAMYNIEQNENYQPKYGYWVIGLQEGVKYSVFQDGSSHTPFAPFIVPLSVIICPDRVGVFVDYEACTVSFFNITNHGFLIYKFSQCSFSKPVFPYLNPRKCTVPMTLCSPSS [rhesus TRIM5α, 332-344 = QAPGTRFQSFV] | 0.481 ± 0.39 |
| MASGILLNVKEEVTCPICLELLTEPLSLHCGHSFCQACITANHKKSMLYKEGERSCPVCRISYQPENIQPNRHVANIVEKLREVKLSPEEGQKVDHCARHGEKLLLFCQEDSKVICWLCERSQEHRGHHTFLMEEVAQEYHVKLQTALEMLRQKQQEAEKLEADIREEKASWKIQIDYDKTNVSADFEQLREILDWEESNELQNLEKEEEDILKSLTKSETEMVQQTQYMRELISELEHRLQGSMMDLLQGVDGIIKRIENMTLKKPKTFHKNQRRVFRAPDLKGMLDMFRELTDARRYWVDVTLAPNNISHAVIAEDKRQVSSRNPQIMYGARGTRYTFPTFTNFNYCTGVLGSQSITSGKHYWEVDVSKKSAWILGVCAGFQSDAMYNIEQNENYQPKYGYWVIGLQEGVKYSVFQDGSSHTPFAPFIVPLSVIICPDRVGVFVDYEACTVSFFNITNHGFLIYKFSQCSFSKPVFPYLNPRKCTVPMTLCSPSS [rhesus TRIM5α, 332-344 = GARGTRYTFPTFT] | 1.36 ± 0.12 |
| MASGILLNVKEEVTCPICLELLTEPLSLHCGHSFCQACITANHKKSMLYKEGERSCPVCRISYQPENIQPNRHVANIVEKLREVKLSPEEGQKVDHCARHGEKLLLFCQEDSKVICWLCERSQEHRGHHTFLMEEVAQEYHVKLQTALEMLRQKQQEAEKLEADIREEKASWKIQIDYDKTNVSADFEQLREILDWEESNELQNLEKEEEDILKSLTKSETEMVQQTQYMRELISELEHRLQGSMMDLLQGVDGIIKRIENMTLKKPKTFHKNQRRVFRAPDLKGMLDMFRELTDARRYWVDVTLAPNNISHAVIAEDKRQVSSRNPQIMYGARGTRFPSFTNFNYCTGVLGSQSITSGKHYWEVDVSKKSAWILGVCAGFQSDAMYNIEQNENYQPKYGYWVIGLQEGVKYSVFQDGSSHTPFAPFIVPLSVIICPDRVGVFVDYEACTVSFFNITNHGFLIYKFSQCSFSKPVFPYLNPRKCTVPMTLCSPSS [rhesus TRIM5α, 332-344 = GARGTRFPSFT] | 0.718 ± 0.72 |
| MASGILLNVKEEVTCPICLELLTEPLSLHCGHSFCQACITANHKKSMLYKEGERSCPVCRISYQPENIQPNRHVANIVEKLREVKLSPEEGQKVDHCARHGEKLLLFCQEDSKVICWLCERSQEHRGHHTFLMEEVAQEYHVKLQTALEMLRQKQQEAEKLEADIREEKASWKIQIDYDKTNVSADFEQLREILDWEESNELQNLEKEEEDILKSLTKSETEMVQQTQYMRELISELEHRLQGSMMDLLQGVDGIIKRIENMTLKKPKTFHKNQRRVFRAPDLKGMLDMFRELTDARRYWVDVTLAPNNISHAVIAEDKRQVSSRNPQIMYGARGTLFPSLVNFNYCTGVLGSQSITSGKHYWEVDVSKKSAWILGVCAGFQSDAMYNIEQNENYQPKYGYWVIGLQEGVKYSVFQDGSSHTPFAPFIVPLSVIICPDRVGVFVDYEACTVSFFNITNHGFLIYKFSQCSFSKPVFPYLNPRKCTVPMTLCSPSS [rhesus TRIM5α, 332-344 = GARGTLFPSLV] | 0.639 ± 0.29 |
| MASGILLNVKEEVTCPICLELLTEPLSLHCGHSFCQACITANHKKSMLYKEGERSCPVCRISYQPENIQPNRHVANIVEKLREVKLSPEEGQKVDHCARHGEKLLLFCQEDSKVICWLCERSQEHRGHHTFLMEEVAQEYHVKLQTALEMLRQKQQEAEKLEADIREEKASWKIQIDYDKTNVSADFEQLREILDWEESNELQNLEKEEEDILKSLTKSETEMVQQTQYMRELISELEHRLQGSMMDLLQGVDGIIKRIENMTLKKPKTFHKNQRRVFRAPDLKGMLDMFRELTDARRYWVDVTLAPNNISHAVIAEDKRQVSSRNPQIMYGAPGTLYTFQSLTNFNYCTGVLGSQSITSGKHYWEVDVSKKSAWILGVCAGFQSDAMYNIEQNENYQPKYGYWVIGLQEGVKYSVFQDGSSHTPFAPFIVPLSVIICPDRVGVFVDYEACTVSFFNITNHGFLIYKFSQCSFSKPVFPYLNPRKCTVPMTLCSPSS [rhesus TRIM5α, 332-344 = GAPGTLYTFQSLT] | 0.829 ± 0.28 |
